Hit rate of the full screen: of about 350,000 compounds, about 180 (0.051%) were called active. The shares of active, inactive and inconclusive entries below differ from those in the screen.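 Rule for the calls: active = mean replicate inhibition above about 25%, with every replicate also reaching it (limit read from the data, passing the limit was not always enough); inconclusive = only one of those two criteria met; inactive = neither criterion met.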
Target: Protein disulfide-isomerase A6 (Homo sapiens) (UniProt Q15084)
Chain of UniProt Q15084 (Q15084 whole entry, looked up): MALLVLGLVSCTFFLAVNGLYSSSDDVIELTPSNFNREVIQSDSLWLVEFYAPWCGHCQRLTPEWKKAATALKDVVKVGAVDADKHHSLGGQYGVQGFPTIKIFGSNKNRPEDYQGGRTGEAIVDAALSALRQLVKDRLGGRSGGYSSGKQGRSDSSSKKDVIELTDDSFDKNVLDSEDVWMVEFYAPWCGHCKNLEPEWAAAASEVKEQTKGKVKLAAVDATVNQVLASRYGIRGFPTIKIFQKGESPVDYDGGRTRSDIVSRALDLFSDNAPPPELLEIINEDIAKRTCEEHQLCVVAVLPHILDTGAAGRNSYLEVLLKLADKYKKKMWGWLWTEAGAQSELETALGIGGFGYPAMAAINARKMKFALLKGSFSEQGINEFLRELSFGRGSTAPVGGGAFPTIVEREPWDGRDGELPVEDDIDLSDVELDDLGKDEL
Assay: inhibitors of ERp5-driven insulin aggregation, primary screen, biochemical, turbidity, absorbance 650 nm, single point (AID 651711)
Conditions: 90 min, at 9.99 µM, stronger effect = higher value

Q: For `COc1ccc(OCC(=O)c2c[nH]c3ccccc23)cc1`, which inhibition is on record?
A: inconclusive: 33.4%

Q: With `C[C@@H]1CN([C@@H](C)CO)C(=O)c2cc(NC(=O)CCCN(C)C)ccc2O[C@@H](C)CCCCO[C@@H]1CN(C)S(=O)(=O)c1ccccc1` as the compound, how does the inhibition read?
A: inactive: -0.485%

Q: With `C[C@@H]1CN([C@H](C)CO)C(=O)c2cc(/C=C/c3ccccc3)cnc2O[C@H]1CN(C)C(=O)C1CCOCC1` as the compound, how does the inhibition read?
A: inconclusive: 26.5%

Q: For `C[C@H]1CN([C@@H](C)CO)S(=O)(=O)c2ccc(C#CC3CC3)cc2O[C@@H]1CN(C)C(=O)c1cccnc1`, which inhibition is on record?
A: inactive: 7.03%

Q: For `C[C@@H]1CN([C@@H](C)CO)C(=O)Cc2cc(NC(=O)Cc3ccccc3)ccc2O[C@H]1CN(C)S(=O)(=O)c1ccc(Cl)cc1`, which inhibition is on record?
A: inactive: 2.07%

Q: How did the inhibition turn out when `CCN(c1ccccc1)S(=O)(=O)c1ccc(OC)c(NC(=O)c2c(C)noc2C)c1` was run?
A: active: 27.4%

Q: Which inhibition does the source give for `COc1ccc(C2=Nn3c(nnc3-c3ccccc3Cl)SC2)cc1OC1CCOC1` (centres undefined) here?
A: inconclusive: 53.8%

Q: How did the inhibition turn out when `O=C1NC(Cc2ccc(O)cc2)c2nc3ccc(Br)cc3c(=O)n2-c2cc3ccccc3cc21` (centres undefined) was run?
A: inactive: 0.327%

Q: `C[C@H](CO)N1C[C@H](C)[C@@H](CN(C)Cc2ccc(C(=O)O)cc2)Oc2ccc(NS(=O)(=O)c3cccs3)cc2CC1=O` was tested. Which inhibition did it give?
A: active: 42.6%

Q: Which inhibition does the source give for `CC(=O)c1ccc(N2CCC(C)CC2)c(F)c1` here?
A: inconclusive: 47.3%

Q: Which inhibition does the source give for `O=C(NCc1ccccc1)c1ccc(CS(=O)(=O)Cc2ccccc2F)o1` here?
A: inconclusive: 40.9%

Q: How did the inhibition turn out when `Cc1ccc(Cn2ncc(Cl)c(Cl)c2=O)cc1` was run?
A: inconclusive: 39.6%

Q: Which inhibition does the source give for `COc1ccc2c3c(n(C)c2c1)[C@H](CO)N(Cc1ccc(F)cc1)CC31CCN(C)CC1` here?
A: inactive: -1.69%

Q: For `Cc1ccccc1N(CC(=O)NC1CCCC1)C(=O)c1csnn1`, which inhibition is on record?
A: inconclusive: 45.6%

Q: Which inhibition does the source give for `Cn1c(COc2ccccc2)nnc1SCC(=O)Nc1nnc(C2CC2)s1` here?
A: active: 26.9%

Q: Which inhibition does the source give for `O=C(O)c1cccc(NS(=O)(=O)c2ccc(NC(=O)c3ccco3)cc2)c1` here?
A: inconclusive: 39.9%

Q: For `Cc1cc(=O)nc2c3ccccc3n(C(C)C(=O)NCCN3CCOCC3)n12` (centres undefined), which inhibition is on record?
A: inactive: 0.345%

Q: `O=C(COC(=O)C1CCN(C(=O)c2ccc(Cl)cc2)CC1)NC1CCS(=O)(=O)C1` (centres undefined) was tested. Which inhibition did it give?
A: inconclusive: 43.6%

Q: Which inhibition does the source give for `C[C@@H]1CCCCO[C@@H](CN(C)C(=O)CCC(F)(F)F)[C@H](C)CN([C@@H](C)CO)C(=O)c2cc(NS(=O)(=O)c3ccc(Cl)cc3)ccc2O1` here?
A: active: 63.9%

Q: How did the inhibition turn out when `Cc1cc(C)cc(C(=O)NN2CCN(C)CC2)c1` was run?
A: inconclusive: 42.2%

Q: `C[C@H]1CN([C@@H](C)CO)C(=O)c2cc(C#CCN(C)C)cnc2O[C@H]1CN(C)Cc1ccc2c(c1)OCO2` was tested. Which inhibition did it give?
A: inactive: -1.95%

Q: With `O=C(CCN1C(=O)/C(=C\c2cccc(Br)c2)SC1=S)NCCCN1CCOCC1` as the compound, how does the inhibition read?
A: inconclusive: 29.3%

Q: `CC(=O)Nc1ccc(S(=O)(=O)NC2=NCN(c3cccc([N+](=O)[O-])c3)CN2)cc1` was tested. Which inhibition did it give?
A: inconclusive: 25.9%

Q: Which inhibition does the source give for `O=c1[nH]c2ccc(N=Cc3c(O)ccc4cc(Br)ccc34)cc2[nH]1` here?
A: inconclusive: 41.7%

Q: Which inhibition does the source give for `CSc1ccccc1NC(=O)COc1ccc(Cl)cc1C` here?
A: inconclusive: 31.3%

Q: Which inhibition does the source give for `C[C@@H]1CN([C@H](C)CO)S(=O)(=O)c2ccc(Br)cc2O[C@H]1CN(C)C(=O)c1cnccn1` here?
A: inactive: -0.795%

Q: How did the inhibition turn out when `CC(=O)Nc1ccc2c(c1)C(=O)N(C)[C@H]1CC[C@H](CC(=O)NCC3CC3)O[C@@H]1CO2` was run?
A: active: 90.7%

Q: `O=C(C[C@@H]1C[C@H]2c3cc(NS(=O)(=O)c4ccccc4)ccc3O[C@H]2[C@@H](CO)O1)NCC1CC1` was tested. Which inhibition did it give?
A: inactive: -6.05%

Q: How did the inhibition turn out when `Cc1nc2sc(-c3ccccc3)cc2c(=O)n1N` was run?
A: inconclusive: 37.9%

Q: Which inhibition does the source give for `C/C=C/c1ccc2c(c1)O[C@H](CN(C)S(C)(=O)=O)[C@@H](C)CN([C@@H](C)CO)S2(=O)=O` here?
A: inconclusive: 42.9%

Q: Which inhibition does the source give for `O=C(CSC1=NCCS1)NC(c1ccccc1)c1ccccc1` here?
A: inconclusive: 27.9%

Q: For `C[C@@H]1CCCCO[C@@H](CN(C)Cc2ccc3c(c2)OCO3)[C@H](C)CN([C@H](C)CO)C(=O)c2cc(NC(=O)Nc3ccc(C(F)(F)F)cc3)ccc2O1`, which inhibition is on record?
A: inactive: -2.54%

Q: How did the inhibition turn out when `Cc1ccc(S(=O)(=O)N(C)C[C@@H]2OCCCC[C@H](C)Oc3ccc(NC(=O)c4ccncc4)cc3C(=O)N([C@@H](C)CO)C[C@H]2C)cc1` was run?
A: inactive: 3.7%

Q: For `CCOC(=O)CCc1c(C)nc2cc(-c3ccccc3OC)[nH]n2c1=O`, which inhibition is on record?
A: inconclusive: 57%

Q: `CCOC(=O)N1CCN(c2ccc(N3C(=O)CCCC3=O)cc2[N+](=O)[O-])CC1` was tested. Which inhibition did it give?
A: inconclusive: 38.8%

Q: For `CCCCc1ccc(N=N/C(C(=O)Nc2ccccc2OC)=C(/C)O)cc1`, which inhibition is on record?
A: inconclusive: 27.4%

Q: With `O=C(COC(=O)CCC(=O)c1ccc(F)cc1)Nc1ccccc1` as the compound, how does the inhibition read?
A: inconclusive: 38.8%

Q: With `CSCc1ccc(C(=O)NCc2ccc(F)cc2)cc1` as the compound, how does the inhibition read?
A: inconclusive: 41.2%

Q: Which inhibition does the source give for `C=CCNc1nc2cc(-c3cccc(Cl)c3)sc2c(=O)n1C` here?
A: inconclusive: 50.9%

Q: With `COc1ccc(C2CC(c3ccc(C)cc3)Nc3ncnn32)cc1` (centres undefined) as the compound, how does the inhibition read?
A: inconclusive: 44.3%

Q: Which inhibition does the source give for `Cc1ccc(OCC(=O)O/N=C(\N)c2cccnc2)cc1` here?
A: inactive: -5.74%

Q: `O=c1[nH]c(=S)[nH]c2c1C(c1cc([N+](=O)[O-])c(N3CCOCC3)cc1N1CCOCC1)O2` (centres undefined) was tested. Which inhibition did it give?
A: inconclusive: 38.1%

Q: `Cc1cc2c(cc1C)NC(C)CC(=O)N2` (centres undefined) was tested. Which inhibition did it give?
A: inconclusive: 34.8%

Q: For `O=S(=O)(c1ccc(F)cc1)N1CCCCN2[C@H](CO)[C@H](c3ccc(C#CC4CC4)cc3)[C@H]2C1`, which inhibition is on record?
A: inactive: -3.29%

Q: With `C/C(=N\N1CCN(c2ccc(Cl)cc2)CC1)c1ccco1` as the compound, how does the inhibition read?
A: inconclusive: 36.2%

Q: How did the inhibition turn out when `O=C(NCc1ccco1)c1ccc(NS(=O)(=O)c2cccc(F)c2)cc1` was run?
A: inactive: 2.29%

Q: `CN(C)C(=O)C[C@@H]1C[C@H]2c3cc(NS(C)(=O)=O)ccc3O[C@H]2[C@@H](CO)O1` was tested. Which inhibition did it give?
A: active: 92.7%

Q: How did the inhibition turn out when `COc1ccc(S(=O)(=O)NC[C@@H]2CC[C@H]3[C@H](CN3Cc3cc(F)ccc3F)O2)cc1` was run?
A: inactive: 1.88%

Q: With `COc1ccc(NC(=O)Nc2cccs2)cc1OC` as the compound, how does the inhibition read?
A: inconclusive: 45.6%

Q: Which inhibition does the source give for `Cc1cc(C(=O)N2CCc3ccccc32)n(-c2ccccc2)n1` here?
A: inactive: 0.874%

Q: How did the inhibition turn out when `CS(=O)(=O)N(CC(=O)N1CCC(C(N)=O)CC1)c1cc(C(F)(F)F)ccc1Cl` was run?
A: inconclusive: 43.1%

Q: `CSCCC(NC(=O)c1ccccc1Cl)C(=O)NNC(=O)c1csc(N2CCOCC2)n1` (centres undefined) was tested. Which inhibition did it give?
A: inactive: -0.001%

Q: How did the inhibition turn out when `CCOc1cc(/C=N/Nc2ccc(C(=O)O)cc2)ccc1OC(=O)c1ccccc1C` was run?
A: inconclusive: 44.5%

Q: How did the inhibition turn out when `CCN1CCN(Cc2ccc(NC(=O)c3cc(NC(=O)C4=NN(c5ccccc5)C(=O)C4)cc(OC)c3)cc2C(F)(F)F)CC1` was run?
A: inconclusive: 25.3%

Q: `CCC(=O)Nc1ccc2c(c1)C(=O)N(C)[C@H]1CC[C@@H](CC(=O)NCC3CC3)O[C@H]1CO2` was tested. Which inhibition did it give?
A: active: 36.3%

Q: Which inhibition does the source give for `O=C(NN=c1c(=O)c2ccccc2c1=O)c1ccccc1` here?
A: active: 32.5%

Q: Which inhibition does the source give for `O=C(NCc1nc2ccccc2[nH]1)C1=C[C@H](c2ccc(C(F)(F)F)cc2)C[C@H](OCCCCO)O1` here?
A: inactive: 0.945%

Q: With `CCCN(CC(=O)Nc1ccccc1C)C(=O)c1ccc(S(=O)(=O)N2CCCCCC2)cc1` as the compound, how does the inhibition read?
A: inactive: -1.68%

Q: `O=C(COC(=O)c1ccccc1Br)NCCC1=CCCCC1` was tested. Which inhibition did it give?
A: inactive: -1.42%

Q: How did the inhibition turn out when `COc1ccc(NC(=O)C(CC(=O)O)Cc2ccc(C)cc2)cc1` (centres undefined) was run?
A: inactive: -2.06%

Q: For `O=C(NCc1ccccc1)c1cccc(NC(=O)c2ccccc2)c1`, which inhibition is on record?
A: inactive: -1.26%

Q: Which inhibition does the source give for `COc1cc(C(=S)N2CCOCC2)ccc1OS(=O)(=O)c1ccccc1[N+](=O)[O-]` here?
A: inconclusive: 49.2%

Q: Which inhibition does the source give for `O=C(Nc1cccc(S(=O)(=O)NC2=NCCC2)c1)C1CC(=O)N(c2ccc3c(c2)OCCO3)C1` (centres undefined) here?
A: inconclusive: 33.4%

Q: For `COc1ccc(NC(=S)N2CCC(C(=O)c3ccc(Cl)cc3)CC2)cc1`, which inhibition is on record?
A: inactive: -4.76%

Q: `O=C(CNC(=O)c1ccccc1Br)N/N=C/c1ccco1` was tested. Which inhibition did it give?
A: inactive: 3.27%

Q: For `CCOc1ccc2nc(C(=O)N3CCCC(C)C3)sc2c1` (centres undefined), which inhibition is on record?
A: inconclusive: 26.2%

Q: For `O=C(C[C@H]1CC[C@H](NC(=O)Nc2ccc(C(F)(F)F)cc2)[C@H](CO)O1)NCc1cccc(F)c1`, which inhibition is on record?
A: inactive: -2.4%

Q: With `NC(=O)c1ccc(F)cc1` as the compound, how does the inhibition read?
A: inconclusive: 44.4%

Q: Which inhibition does the source give for `C/C(=N/Nc1ccccc1C(=O)O)c1cccs1` here?
A: inactive: -0.197%

Q: For `CO[C@H]1CN(C)C(=O)c2ccc(NC(=O)Nc3cccc(F)c3)cc2OC[C@H](C)NC[C@H]1C`, which inhibition is on record?
A: inconclusive: 35.5%

Q: For `COc1ccccc1C(=O)OCC(=O)Nc1ccc(Cl)cn1`, which inhibition is on record?
A: inconclusive: 41.2%

Q: With `O=c1[nH]c(=O)n(C2CCCO2)cc1F` (centres undefined) as the compound, how does the inhibition read?
A: inconclusive: 27%

Q: With `O=C(O)C1=NOC(CNC(=O)c2ccccc2Cl)C1` (centres undefined) as the compound, how does the inhibition read?
A: inconclusive: 38.4%

Q: How did the inhibition turn out when `O=C(CCC(=O)c1ccc(F)cc1)NC1CCCN(Cc2ccccc2F)C1` (centres undefined) was run?
A: inconclusive: 47.5%

Q: How did the inhibition turn out when `COc1ccc([C@H]2CC(=O)C=C(c3ccc(NC(C)=O)cc3)C2)cc1OC` was run?
A: inconclusive: 31.2%

Q: With `O=[N+]([O-])c1ccc(O)c(/C=N/NC2=NS(=O)(=O)c3ccccc32)c1` as the compound, how does the inhibition read?
A: inactive: -0.369%

Q: How did the inhibition turn out when `CCSc1nnc(NC(=O)C2Cc3ccccc3CN2S(=O)(=O)CC)s1` (centres undefined) was run?
A: inconclusive: 48.3%

Q: For `C[C@@H]1CN([C@H](C)CO)C(=O)Cc2cc(NC(=O)Nc3cccc4ccccc34)ccc2O[C@@H]1CN(C)C(=O)Nc1cccc2ccccc12`, which inhibition is on record?
A: active: 52%

Q: Which inhibition does the source give for `O=C(C[C@H]1CC[C@H](NC(=O)Nc2ccccc2F)[C@H](CO)O1)NCc1ccccc1` here?
A: inactive: -2.53%
